Measurements as given in US20260217767A1, “NOVEL A4B7 THIOETHER PEPTIDE DIMER ANTAGONISTS” (Protagonist Therapeutics, Inc., priority 2014, published 2026).
At least one structure is not confirmed: it was looked up by name or label, or the drawing left a doubt. Where a SMILES comes first, the peptide text is derived from it.

Experiment: Simulated Intestinal Fluid (SIF) Stability Assay
Assay type: in vitro ADME
Details: porcine pancreatin, 37° C.; monomers, Table 6
Procedure: Simulated Intestinal Fluid (SIF) Stability Assay
Studies were carried out in simulated intestinal fluid (SIF) to evaluate intestinal stability of the peptide molecules of the instant invention. To prepare the SIF reagent, blank FASSIF was prepared by dissolving 0.348 g NaOH, 3.954 g sodium phosphate monobasic monohydrate and 6.186 g NaCl in a final volume of 1 liter water (final pH=6.5). To this solution, 24 g porcine pancreatin (Sigma catalog P7545) was added and stirred for 30 minutes (final pancreatin concentration is 2.4%). The solution was filtered through a cheese cloth and a No. 1 Whatman filter, and 10 ml aliquots were stored at −70° C. To run the reaction, a 10 ml aliquot was thawed at 37° C., and 125 μl aliquots were removed and mixed with an equal volume of blank FASSIF. The peptide stock solution (10 mM in 100% DMSO) was diluted 75-fold in blank FASSIF. A 50 μl aliquot of the diluted peptide was combined with 125 μl pancreatin (2.4%) and 125 μl blank FASSIF to yield final concentrations of 1% pancreatin and 22 μM peptide. The reactions were incubated at 37° C., and at various time points 50 μl aliquots were removed and added to 200 μl of quench solution containing 50% acetonitrile, 50% methanol, 5% formic acid, and 1 μg/ml internal standard. The quenched samples were centrifuged at 10,000 rpm for 10 minutes, and the supernatants were analyzed by LCMS/MS. The percent remaining at each time point was calculated based on the peak area response ratio of test to compound to internal standard. Half-lives were calculated by fitting to a first-order exponential decay equation using GraphPad. A small sampling of the results of these studies is provided and discussed herein and in the accompanying figures.

## CC(C)C[C@@H]1NC(=O)[C@H]([C@@H](C)O)NC(=O)[C@H](CC(=O)O)NC(=O)[C@H](CO)NC(=O)[C@H](CCCNC(=N)N)N(C)C(=O)c2ccccc2CSC(C)(C)[C@@H](C(=O)N[C@@H](Cc2c[nH]c3ccccc23)C(=O)N[C@H](CCC(=O)O)C(N)=O)NC1=O [compound 98] (HELM PEPTIDE1{[meR].S.D.T.L.[Pen].W.[dE].[am]}|CHEM1{[O=C(c1ccccc1C[*:2])[*:1]]}$PEPTIDE1,CHEM1,1:R1-1:R1|PEPTIDE1,CHEM1,6:R3-1:R2$$$V2.0)
  SIF (Porcine) (half-life, min): >300 min
